Measured values: paper PMC12136788
Some of the results follow.

T1: UNK ZnF1-3 (human, UniProt Q9C0B0 31-174)
T1 sequence: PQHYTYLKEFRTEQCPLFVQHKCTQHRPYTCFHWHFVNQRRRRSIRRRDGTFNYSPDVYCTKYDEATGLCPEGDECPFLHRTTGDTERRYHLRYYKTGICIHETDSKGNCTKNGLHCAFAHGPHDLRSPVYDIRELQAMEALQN

B1: chr1:60041781:60041782:+_ENSMUSG00000041040_ENSMUST00000036540|mus_hu|mus_mus_mus_hu_False|78_108 (ssRNA)
RNA: GGGAGUUCUACAGUCCGACGAUCAAGAGGAGUGAAUUAAAGUAAAUGCAGUAGUGGAAUGGCAAGUUUUAUUUUCCUUCACAAAAGAAAAUCUUUAUAACCCAGUCCUAGUCUUGGACAUAGUGAAAGCUAUAAAUUCUGACUCAACAGAGGAUUGAGCAUCA
B2: chr16:17043922:17043923:+_ENSMUSG00000063358_ENSMUST00000069107|mus_hu|motif|central (ssRNA)
RNA: GGGAGUUCUACAGUCCGACGAUCAGGGCUGCCAGGAGGAAUUCUCUGGACUGAAGAAAUUCUUUGAAAGCAUAAAAGCCACAACGGCCAGAAACCGCCCCUCCAAACGGCUCAAAGGAGUCAAAGUGGAUAAGCCAAGACGGGCAACAGAGGAUUGAGCAUCA
B3: chr14:78183846:78183847:+_ENSG00000119705_ENST00000557342|hu_hu|hu_hu_hu_mus_False|28_98 (ssRNA)
RNA: GGGAGUUCUACAGUCCGACGAUCUCUCAGAAAUCUUUCUUUCUUUUAUGUUUGAGCUCCGUGCAAAGCCUUUGCUCUUUGAGCUUGAACGUGGAUCUAUGGGAGGGCUAUAAUAUGCAGAAAAGGUAAUUUUUUUUUUAAAGACAACAGAGGAUUGAGCAUCA
B4: 96261735_96264329_2187_CDS_ENSG00000134874_ENST00000376829|human|control|control (ssRNA)
RNA: GGGAGUUCUACAGUCCGACGAUCAGAUUCAAAAGCCUGCCAGGCUAAAGGAUUUCCUUUGGGUUCACUGAUACUGUUUAAUGGAUUACAGGUAAAGUCUUUAAUCUGCUGUCUCUGAGUUAUAAUCAGCUCAUUCUGCUCCUGCAACAGAGGAUUGAGCAUCA
B5: 30737854_30738288_992_CDS_ENSG00000099995_ENST00000215793|human|control|control (ssRNA)
RNA: GGGAGUUCUACAGUCCGACGAUCGGUGGGGGGAGGGAAGUUCCCUUGCUCAUUGGGUUGGAAGUCCACUGUUUCCACCACCACAAAAUCAUGCCAGUCGAUCUGAGCAUAGGCCACCCGCUCCUUCUCCUUCUCCUCUUCUUCCAACAGAGGAUUGAGCAUCA
B6: 57578468_57578588_1780_3pUTR_ENSG00000140262_ENST00000343827|human|control|control (ssRNA)
RNA: GGGAGUUCUACAGUCCGACGAUCAUUUGUUGCAAACAUCUCAUGGGCUGAUGUUCUAUCUGAUGAGCUUCCUAUCUUCACUUCUGAUGGAAGUGUUGACCAGUUGCUUUGAUCGUAGGAUUACAUUUGAGUUUCUUGGUUCAACAACAGAGGAUUGAGCAUCA
B7: chr19:36946997:36946998:+_ENSMUSG00000024811_ENSMUST00000025729|mus_hu|FALSE|FALSE (ssRNA)
RNA: GGGAGUUCUACAGUCCGACGAUCAUAUUUUCCUUUUGCUGCUGCUUCAUGUAAAGGUGUAAAUUUCCAUAAAUCAGCUACAUUAACUACUGCUCCAUGUUUAACAAGAAGUUCUGCAACUUCAUAAUGUCCAUAAGAACAUGCCAACAGAGGAUUGAGCAUCA
B8: chr7:6441565:6441566:+_ENSG00000136238_ENST00000348035|hu_hu|FALSE|FALSE (ssRNA)
RNA: GGGAGUUCUACAGUCCGACGAUCGGUGAUGGGAGUCAGCUUCUUCUCCUUCAGUUUCUCGAUCGUGUCUUUAUCAUCCCUAAGAUCAAGUUUAGUUCCCACUAGGAUGAUGGGAGUGUUGGGACAGUGGUGCCGCACCUCAGGCAACAGAGGAUUGAGCAUCA
B9: chr13:41369065:41369066:+_ENSMUSG00000091264_ENSMUST00000165561|mus_hu|FALSE|FALSE (ssRNA)
RNA: GGGAGUUCUACAGUCCGACGAUCAAGAGUACUGGUUAUGCAGCACUUCUUGAAAGAGUGCUCCAACACUGUCUUCUGUUUAAUGGCAGUGGGGAGCUUGGGACAAAACGAUGUUUGAUGCCUUAAUGAUAGUCCUGCUCGACGCAACAGAGGAUUGAGCAUCA
B10: chr2:48035047:48035048:-_ENSG00000138081_ENST00000403359|hu_mus|FALSE|FALSE (ssRNA)
RNA: GGGAGUUCUACAGUCCGACGAUCCAAAAUUGCAGCUUAUUUCUUCACUUCUGUCCCUUCAAAAGUCUUUACGCAGUAAUGCUAAAAUCCCGAGCUCUGACAUCCUGAGUCAAUCUAUUGCCACUUCCUUUUUGGUAGCUUGAGCAACAGAGGAUUGAGCAUCA
B11: chr7:36537692:36537693:-_ENSMUSG00000043671_ENSMUST00000051377|mus_mus|motif|central (ssRNA)
RNA: GGGAGUUCUACAGUCCGACGAUCCAAUUUCUUUUCCAACUUCACAUCUUCUUUUGGUGAUGGAAAAUCCUCAGAAACUUCGGUGGGUUUUGUCUCUUUUCUUUGCCGGAUGUACAUCAUGAUGUCAAAGACUCAUACGCAUUGCAACAGAGGAUUGAGCAUCA
B12: chr11:2966284:2966285:-_ENSG00000205531_ENST00000380542|hu_mus|motif|central (ssRNA)
RNA: GGGAGUUCUACAGUCCGACGAUCGAGGGUGAACCCGAUGGCUCUGGCCUCAGAGGUGUGUGCCACAACCCACCCACCCCGGAAACCAAAACGCAAGAAAAAAAAUGCUCUAAGGCGAGCACAGCUUCCUCUACAGUGCUUGGGCAACAGAGGAUUGAGCAUCA
B13: chr2:74714714:74714715:+_ENSMUSG00000027099_ENSMUST00000028511|mus_hu|FALSE|FALSE (ssRNA)
RNA: GGGAGUUCUACAGUCCGACGAUCAUGUUUCAAGGAAACAAAAAUUUCAAGAUACAGAAUACAACAUAUCAGAUUAAAUAAUUCAGAAUUAUUUUAAUGUAUACACAAAUAACAAUAUAAAGCACAUACAUAAGAUACAUUAUACAACAGAGGAUUGAGCAUCA
B14: 38807162_38812148_1086_CDS_ENSG00000006715_ENST00000395969|human|control|control (ssRNA)
RNA: GGGAGUUCUACAGUCCGACGAUCCUCCACCAGGUGAUUUAUAUAUGCCAAGCCAAUAUCCAGAAUCUUAUGUCUUUUAAUAUUUUUUUGGCUAAUUUCAGCUGCCAUCAAUGCUUCUUCAUAUUUCUUCUUUUCAAGGAGCCACAACAGAGGAUUGAGCAUCA
B15: chr2:216986912:216986913:+_ENSG00000079246_ENST00000392132|hu_mus|FALSE|FALSE (ssRNA)
RNA: GGGAGUUCUACAGUCCGACGAUCCAGUUGUCGUAGACUCUCACUGAAGGAAUAAAUUUCAUCCAGCCCGUCUUCGCCUUCUAAGGACAGCAUCACCCUUGUCACCAUGCGGAUGCCUUCCUUUUGCUGCUCAGUAAGUCCUUUCAACAGAGGAUUGAGCAUCA
B16: chr14:62154062:62154063:-_ENSMUSG00000021930_ENSMUST00000100496|mus_hu|FALSE|FALSE (ssRNA)
RNA: GGGAGUUCUACAGUCCGACGAUCUUUUUCAAAACCAGGUGGAGGCGUAUGAUAAAACUCACUGAACUGGCAAUCCAAAAUUGCACUGUCAUCAACAUAAACAACUGGAUACACUGUCCCUCGUAUACCUGAUGCUGGACAAUGCAACAGAGGAUUGAGCAUCA
B17: chr4:95585729:95585730:+_ENSG00000163110_ENST00000317968|hu_hu|motif|central (ssRNA)
RNA: GGGAGUUCUACAGUCCGACGAUCGAUUACAGGCGUGAGCCACCGCGCUCAGCCUACAAGCAAUUUUUUAAAAACUGACACCGGUUACUGAUAAAAUUCUCUGUUUAAAAUCCUAUUUACUAUUUUAAAGAUAAGUAUUAGUUUCAACAGAGGAUUGAGCAUCA
B18: chr4:103517381:103517382:+_ENSG00000109320_ENST00000505458|hu_hu|FALSE|FALSE (ssRNA)
RNA: GGGAGUUCUACAGUCCGACGAUCCUCACCAUUCCCAACGGUGGCCUCGCUGGGCUCCUGAUCUUGCUCUGUGGUUUCAAUAACUUUCCCAAAGAGGUUUACAGUGUUUUUGUCAUCACUUUUGUCACAACCUUCAGGGUCCUUCAACAGAGGAUUGAGCAUCA
B19: chr11:69466514:69466515:+_ENSG00000110092_ENST00000227507|hu_mus|FALSE|FALSE (ssRNA)
RNA: GGGAGUUCUACAGUCCGACGAUCCAUUUCUCAACCUAAAAACUCUUCUACUUUAACAAUGGUUUGCUGUAUUUUUUUUCCUUCCUUUUUAAAGCAAUGUUUCUUAAGCUUUUUUUUAAAAACAUAUAAAAGAAUCAAAACUCCCAACAGAGGAUUGAGCAUCA
B20: 72891450_72891570_2619_CDS_ENSG00000009954_ENST00000339594|human|control|control (ssRNA)
RNA: GGGAGUUCUACAGUCCGACGAUCCCGUUCCUUCCACAACUCUGCAGACAUCUGCUGUCUGGUCUCCAUGUGGUCUUGCACUGAGUAUGUCAUGAGGAUCCGGUGGCACAGUGCUGUCAAGAUCUGUAGCUUCUCCUCUGACGUCAACAGAGGAUUGAGCAUCA
B21: chr3:119450855:119450856:-_ENSMUSG00000028134_ENSMUST00000029780|mus_hu|mus_mus_mus_hu_False|98_98 (ssRNA)
RNA: GGGAGUUCUACAGUCCGACGAUCUGUGGUGCCACUAAGAGGUGUAUUUGCUGUCUGGACAGCUGUCACAGCUUGAAGAACUGCCUGAGCACGUUGGUUUAAUGUAUUAUCUGUCUUUAGUUCUUUGUGAUUCGAGUACUGGAUCAACAGAGGAUUGAGCAUCA
B22: chr17:45757422:45757423:+_ENSG00000108424_ENST00000290158|hu_hu|FALSE|FALSE (ssRNA)
RNA: GGGAGUUCUACAGUCCGACGAUCUACAUCCUUCCCAAAUGCUGUACAUAAGUCCCCUAUUAGUCCAGCAGCACAAGCUACUACUCCAUCUGUGUGAUCCUCAUCUCCAGCAAUGUGGUCAAUGAAAGACAGAAUAAAUUCUACCAACAGAGGAUUGAGCAUCA

target: T1, UNK ZnF1-3; assay: nsRBNS (natural sequence RNA bind-n-seq); RBNS binding buffer (assumed for nsRBNS): 25 mM Tris pH 7.5, 150 mM KCl, 3 mM MgCl2, 0.01% Triton X-100, 500 ug/ml BSA, 20 U/ml SUPERase-In, 4 C; UNK is unkempt and MSI1 is Musashi-1; names of the RNAs are library labels; protein concentration not given here; high values mean tight binding

Point of comparison: B2, binding signal 1.62 enrichment R. Against it:
- B1 — lower, 0.908 enrichment R
- B3 — lower, 1.46 enrichment R
- B4 — lower, 0.916 enrichment R
- B5 — lower, 1.05 enrichment R
- B6 — lower, 0.274 enrichment R
- B7 — lower, 0.737 enrichment R
- B8 — lower, 0.964 enrichment R
- B9 — lower, 0.449 enrichment R
- B10 — lower, 0.552 enrichment R
- B11 — lower, 0.504 enrichment R
- B12 — lower, 1.03 enrichment R
- B13 — lower, 0.68 enrichment R
- B14 — lower, 1.18 enrichment R
- B15 — lower, 0.794 enrichment R
- B16 — lower, 0.993 enrichment R
- B17 — higher, 1.89 enrichment R
- B18 — lower, 0.692 enrichment R
- B19 — lower, 1.24 enrichment R
- B20 — lower, 0.529 enrichment R
- B21 — lower, 0.709 enrichment R
- B22 — lower, 1.14 enrichment R
